{"source": "paper PMC13423814", "details_in_all_cases": "DSSO, in cells", "key": {"NUP85": {"target": "NUP85 (UniProt Q9BW27)"}, "PLEC": {"target": "PLEC (UniProt Q15149)"}, "PNN": {"target": "PNN (UniProt Q9H307)"}, "UTP11": {"target": "UTP11 (UniProt Q9Y3A2)", "sequence (Q9Y3A2 whole entry)": "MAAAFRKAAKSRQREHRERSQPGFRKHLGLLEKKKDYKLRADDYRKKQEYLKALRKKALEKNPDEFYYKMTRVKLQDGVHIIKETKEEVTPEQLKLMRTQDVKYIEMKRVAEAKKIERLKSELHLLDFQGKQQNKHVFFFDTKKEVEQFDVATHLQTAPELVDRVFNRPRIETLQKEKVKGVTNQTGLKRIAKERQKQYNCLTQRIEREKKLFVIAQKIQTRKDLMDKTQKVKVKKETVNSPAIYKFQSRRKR"}, "RTRAF": {"target": "RTRAF (UniProt Q9Y224)", "sequence (Q9Y224 whole entry)": "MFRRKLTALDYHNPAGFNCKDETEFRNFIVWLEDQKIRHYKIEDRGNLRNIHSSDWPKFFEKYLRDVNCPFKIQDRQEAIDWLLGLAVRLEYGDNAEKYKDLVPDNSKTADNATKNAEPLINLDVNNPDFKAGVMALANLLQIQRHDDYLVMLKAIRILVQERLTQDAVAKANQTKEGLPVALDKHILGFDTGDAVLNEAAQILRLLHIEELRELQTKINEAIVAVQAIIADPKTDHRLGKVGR"}, "SERBP1": {"target": "SERBP1 (UniProt Q8NC51)"}, "PSMD2": {"target": "PSMD2 (UniProt Q13200)", "sequence (Q13200 whole entry)": "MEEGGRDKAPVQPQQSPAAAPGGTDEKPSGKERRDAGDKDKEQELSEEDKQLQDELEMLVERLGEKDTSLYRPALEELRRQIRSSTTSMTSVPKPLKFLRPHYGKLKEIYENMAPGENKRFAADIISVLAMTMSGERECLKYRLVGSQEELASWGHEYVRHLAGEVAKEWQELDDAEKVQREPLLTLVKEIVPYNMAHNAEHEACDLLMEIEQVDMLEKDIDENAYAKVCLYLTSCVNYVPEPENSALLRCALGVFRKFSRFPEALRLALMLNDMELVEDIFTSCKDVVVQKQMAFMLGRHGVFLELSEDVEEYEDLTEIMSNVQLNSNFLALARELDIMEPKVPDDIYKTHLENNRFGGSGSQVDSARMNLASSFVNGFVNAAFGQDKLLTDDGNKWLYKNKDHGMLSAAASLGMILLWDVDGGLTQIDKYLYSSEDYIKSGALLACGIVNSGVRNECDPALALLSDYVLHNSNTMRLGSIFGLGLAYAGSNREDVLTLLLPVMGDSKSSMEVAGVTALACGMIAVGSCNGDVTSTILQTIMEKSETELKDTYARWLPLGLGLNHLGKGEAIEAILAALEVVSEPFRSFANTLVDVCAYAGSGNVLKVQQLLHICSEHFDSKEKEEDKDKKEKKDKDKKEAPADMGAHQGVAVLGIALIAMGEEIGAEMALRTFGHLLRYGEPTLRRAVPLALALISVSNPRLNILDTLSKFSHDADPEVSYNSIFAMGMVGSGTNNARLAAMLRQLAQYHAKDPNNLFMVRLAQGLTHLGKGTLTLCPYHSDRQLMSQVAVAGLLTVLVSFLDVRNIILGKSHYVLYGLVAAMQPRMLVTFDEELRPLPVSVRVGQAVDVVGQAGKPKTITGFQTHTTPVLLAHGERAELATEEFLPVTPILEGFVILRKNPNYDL"}, "SND1": {"target": "SND1 (UniProt Q7KZF4)"}, "STX5": {"target": "STX5 (UniProt Q13190)", "sequence (Q13190 whole entry)": "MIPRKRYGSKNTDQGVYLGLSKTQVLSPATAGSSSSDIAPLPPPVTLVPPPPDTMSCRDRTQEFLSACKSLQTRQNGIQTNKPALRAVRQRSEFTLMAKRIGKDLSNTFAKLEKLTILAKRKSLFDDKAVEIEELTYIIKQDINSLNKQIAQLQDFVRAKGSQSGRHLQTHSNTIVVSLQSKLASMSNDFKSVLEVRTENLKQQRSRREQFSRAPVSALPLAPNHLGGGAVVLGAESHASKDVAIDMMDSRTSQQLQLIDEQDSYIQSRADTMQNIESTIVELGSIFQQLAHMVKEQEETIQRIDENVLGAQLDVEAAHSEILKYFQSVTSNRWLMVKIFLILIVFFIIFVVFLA"}, "UTP15": {"target": "UTP15 (UniProt Q8TED0)"}, "THOC2": {"target": "THOC2 (UniProt Q8NI27)"}, "PSME2": {"target": "PSME2 (UniProt Q9UL46)", "sequence (Q9UL46 whole entry)": "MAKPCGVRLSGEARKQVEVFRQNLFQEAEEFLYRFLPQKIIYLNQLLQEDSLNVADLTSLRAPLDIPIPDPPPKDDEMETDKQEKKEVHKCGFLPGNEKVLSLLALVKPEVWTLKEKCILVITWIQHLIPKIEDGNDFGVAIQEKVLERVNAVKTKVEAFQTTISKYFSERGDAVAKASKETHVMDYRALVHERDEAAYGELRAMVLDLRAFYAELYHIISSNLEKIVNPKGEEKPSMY"}, "SMC4": {"target": "SMC4 (UniProt Q9NTJ3)", "sequence (Q9NTJ3 whole entry)": "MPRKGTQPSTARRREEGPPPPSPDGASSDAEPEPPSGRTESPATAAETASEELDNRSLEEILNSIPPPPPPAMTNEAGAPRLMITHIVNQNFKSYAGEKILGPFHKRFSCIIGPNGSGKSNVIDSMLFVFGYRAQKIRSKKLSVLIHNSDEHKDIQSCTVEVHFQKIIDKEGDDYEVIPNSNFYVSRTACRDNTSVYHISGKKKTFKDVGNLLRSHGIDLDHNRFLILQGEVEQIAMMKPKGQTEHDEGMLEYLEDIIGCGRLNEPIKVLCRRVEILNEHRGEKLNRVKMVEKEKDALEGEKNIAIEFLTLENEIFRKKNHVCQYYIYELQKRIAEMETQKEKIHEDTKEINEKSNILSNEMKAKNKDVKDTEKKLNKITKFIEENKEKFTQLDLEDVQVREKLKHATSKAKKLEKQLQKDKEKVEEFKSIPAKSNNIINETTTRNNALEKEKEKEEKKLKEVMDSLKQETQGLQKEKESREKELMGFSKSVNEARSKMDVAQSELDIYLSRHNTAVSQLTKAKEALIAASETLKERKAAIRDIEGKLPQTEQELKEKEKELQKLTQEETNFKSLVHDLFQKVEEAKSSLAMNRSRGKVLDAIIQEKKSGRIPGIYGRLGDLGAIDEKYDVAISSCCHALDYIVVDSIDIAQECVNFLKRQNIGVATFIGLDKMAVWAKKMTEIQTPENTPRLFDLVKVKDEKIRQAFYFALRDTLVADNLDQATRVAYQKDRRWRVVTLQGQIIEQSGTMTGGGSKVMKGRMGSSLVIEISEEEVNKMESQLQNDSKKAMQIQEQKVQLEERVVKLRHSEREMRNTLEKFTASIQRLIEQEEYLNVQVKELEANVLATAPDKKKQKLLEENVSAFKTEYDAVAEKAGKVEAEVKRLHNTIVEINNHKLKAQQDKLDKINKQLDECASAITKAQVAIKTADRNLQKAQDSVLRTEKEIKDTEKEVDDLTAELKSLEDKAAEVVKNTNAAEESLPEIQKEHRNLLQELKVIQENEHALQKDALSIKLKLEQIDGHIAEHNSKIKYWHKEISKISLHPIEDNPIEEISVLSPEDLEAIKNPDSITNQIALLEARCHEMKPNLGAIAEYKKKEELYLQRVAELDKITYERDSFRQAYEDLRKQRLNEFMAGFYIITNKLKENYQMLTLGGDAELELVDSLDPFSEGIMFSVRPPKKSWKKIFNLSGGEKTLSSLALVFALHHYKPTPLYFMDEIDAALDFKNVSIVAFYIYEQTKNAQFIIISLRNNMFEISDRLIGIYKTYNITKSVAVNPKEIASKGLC"}, "SPTAN1": {"target": "SPTAN1 (UniProt Q13813)"}, "PDIA3": {"target": "PDIA3 (UniProt P30101)", "sequence (P30101 whole entry)": "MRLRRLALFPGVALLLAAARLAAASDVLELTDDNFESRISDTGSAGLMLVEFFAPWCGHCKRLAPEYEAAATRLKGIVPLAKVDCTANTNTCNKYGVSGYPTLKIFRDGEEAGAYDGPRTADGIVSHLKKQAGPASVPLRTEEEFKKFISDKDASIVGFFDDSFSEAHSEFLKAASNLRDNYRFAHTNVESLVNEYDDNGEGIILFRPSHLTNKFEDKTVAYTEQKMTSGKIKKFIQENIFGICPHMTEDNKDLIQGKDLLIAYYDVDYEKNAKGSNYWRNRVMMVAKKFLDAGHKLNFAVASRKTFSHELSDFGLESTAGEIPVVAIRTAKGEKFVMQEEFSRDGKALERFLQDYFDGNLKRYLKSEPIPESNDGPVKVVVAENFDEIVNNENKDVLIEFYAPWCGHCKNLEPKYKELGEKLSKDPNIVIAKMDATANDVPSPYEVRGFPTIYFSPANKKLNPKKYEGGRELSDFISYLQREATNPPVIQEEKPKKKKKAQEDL"}, "RNF20": {"target": "RNF20 (UniProt Q5VTR2)", "sequence (Q5VTR2 whole entry)": "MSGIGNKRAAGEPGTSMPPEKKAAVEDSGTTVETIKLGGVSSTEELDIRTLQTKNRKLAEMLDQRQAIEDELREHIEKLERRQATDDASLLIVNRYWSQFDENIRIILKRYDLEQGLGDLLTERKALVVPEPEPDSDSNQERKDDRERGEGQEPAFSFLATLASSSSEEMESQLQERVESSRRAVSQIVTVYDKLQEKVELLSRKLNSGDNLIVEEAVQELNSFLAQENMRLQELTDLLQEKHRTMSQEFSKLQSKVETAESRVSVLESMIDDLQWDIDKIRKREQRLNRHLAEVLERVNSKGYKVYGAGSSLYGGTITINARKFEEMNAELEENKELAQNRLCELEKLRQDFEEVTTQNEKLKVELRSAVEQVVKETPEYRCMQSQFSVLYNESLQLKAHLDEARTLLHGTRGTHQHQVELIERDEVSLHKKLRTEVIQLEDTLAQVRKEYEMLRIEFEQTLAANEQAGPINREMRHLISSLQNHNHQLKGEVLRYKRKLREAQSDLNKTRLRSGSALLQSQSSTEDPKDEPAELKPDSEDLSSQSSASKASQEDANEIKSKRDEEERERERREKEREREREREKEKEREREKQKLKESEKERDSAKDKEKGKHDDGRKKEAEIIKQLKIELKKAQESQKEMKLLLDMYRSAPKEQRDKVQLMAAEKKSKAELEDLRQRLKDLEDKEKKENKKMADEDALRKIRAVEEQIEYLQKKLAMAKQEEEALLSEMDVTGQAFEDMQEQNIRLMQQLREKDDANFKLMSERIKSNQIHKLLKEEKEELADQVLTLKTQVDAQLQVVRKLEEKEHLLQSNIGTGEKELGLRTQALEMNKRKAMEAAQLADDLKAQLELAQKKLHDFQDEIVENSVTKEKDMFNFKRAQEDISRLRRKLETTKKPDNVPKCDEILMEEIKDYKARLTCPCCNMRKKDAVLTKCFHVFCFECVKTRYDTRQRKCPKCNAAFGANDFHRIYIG"}, "PRPF3": {"target": "PRPF3 (UniProt O43395)"}, "YWHAB": {"target": "YWHAB (UniProt P31946)"}, "YWHAG": {"target": "YWHAG (UniProt P61981)"}, "YWHAZ": {"target": "YWHAZ (UniProt P63104)", "sequence (P63104 whole entry)": "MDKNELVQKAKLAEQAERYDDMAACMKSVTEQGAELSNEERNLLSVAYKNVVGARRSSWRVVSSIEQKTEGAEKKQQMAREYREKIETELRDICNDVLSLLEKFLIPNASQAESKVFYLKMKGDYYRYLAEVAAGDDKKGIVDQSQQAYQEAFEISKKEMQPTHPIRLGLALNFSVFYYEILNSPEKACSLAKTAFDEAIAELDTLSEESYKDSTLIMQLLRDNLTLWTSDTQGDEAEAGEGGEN"}}, "note": "Not every entry of the source has a single result; some have several. They are shown here; other results are not. The source may hold further records. Some protein pairs were linked at several places, one record each."}
{"substance": "NUP98, P52948", "values": [{"measurement": "cross-linked residues", "setting": "NUP85", "value": "S1039 - K92 and S1039 - K540"}]}
{"substance": "VIM, P08670", "values": [{"measurement": "cross-linked residues", "setting": "PLEC", "value": "K120 - K3887 and K168 - K4480 and K373 - K1815 and K445 - K3384"}]}
{"substance": "SAP18, O00422", "values": [{"measurement": "cross-linked residues", "setting": "PNN", "value": "K74 - K109 and T116 - K109"}]}
{"substance": "NOL7, Q9UMY1", "values": [{"measurement": "cross-linked residues", "setting": "UTP11", "value": "K162 - K131 and K162 - K135 and K170 - K135"}]}
{"substance": "FAM98B, Q52LJ0", "values": [{"measurement": "cross-linked residues", "setting": "RTRAF", "value": "K136 - K98 and K280 - K171"}]}
{"substance": "RPL34, P49207", "values": [{"measurement": "cross-linked residues", "setting": "SERBP1", "value": "S113 - K68 and K115 - K52"}]}
{"substance": "PSMC5, P62195", "values": [{"measurement": "cross-linked residues", "setting": "PSMD2", "value": "K162 - K41 and K222 - K41 and K330 - K39 and K330 - K41"}]}
{"substance": "RPS9, P46781", "values": [{"measurement": "cross-linked residues", "setting": "SND1", "value": "K91 - K513 and K121 - K513 and K155 - K497"}]}
{"substance": "SEC22B, O75396", "values": [{"measurement": "cross-linked residues", "setting": "STX5", "value": "K43 - K103 and K43 - K202"}]}
{"substance": "WDR43, Q15061", "values": [{"measurement": "cross-linked residues", "setting": "UTP15", "value": "K430 - K74 and K430 - S501"}]}
{"substance": "THOC5, Q13769", "values": [{"measurement": "cross-linked residues", "setting": "THOC2", "value": "K24 - K35 and K24 - K139"}]}
{"substance": "PSME1, Q06323", "values": [{"measurement": "cross-linked residues", "setting": "PSME2", "value": "K35 - K15 and K45 - K15 and K70 - T80 and K91 - K180 and K187 - K177 and K187 - K180 and K190 - K177 and K190 - K180"}]}
{"substance": "SMC2, O95347", "values": [{"measurement": "cross-linked residues", "setting": "SMC4", "value": "K290 - K988 and K320 - K405 and K348 - K928 and K580 - K731 and K750 - K522 and K890 - K370 and K900 - K1009 and K911 - K1009 and K911 - K1017 and K930 - S1030 and K930 - K1031"}]}
{"substance": "SPTBN1, Q01082", "values": [{"measurement": "cross-linked residues", "setting": "SPTAN1", "value": "K292 - K2404 and K659 - K1911 and K668 - S1948 and K668 - K1957 and K997 - K1646 and K1249 - K1369 and K1421 - K1138 and K1434 - K1141 and S1458 - K1131 and S1458 - K1132 and K1532 - K909 and K1622 - K864 and K1632 - K803 and K1632 - K864 and K1675 - K814 and K1675 - K969 and K1815 - K602 and K1824 - K613 and K1827 - K602 and K1827 - K613 and K2054 - K441"}]}
{"substance": "CALR, P27797", "values": [{"measurement": "cross-linked residues", "setting": "PDIA3", "value": "K43 - K425 and K55 - K494 and K153 - K82 and K153 - K94 and K153 - K104 and K153 - K226 and K153 - K494 and K360 - K494"}]}
{"substance": "RNF40, O75150", "values": [{"measurement": "cross-linked residues", "setting": "RNF20", "value": "K355 - K57 and K860 - K836 and K862 - K834"}]}
{"substance": "PRPF4, O43172", "values": [{"measurement": "cross-linked residues", "setting": "PRPF3", "value": "K200 - K376 and K216 - K361"}]}
{"substance": "YWHAQ, P27348", "values": [{"measurement": "cross-linked residues", "setting": "YWHAB", "value": "K68 - K13 and K85 - K11"}, {"measurement": "cross-linked residues", "setting": "YWHAG", "value": "K9 - K77 and K74 - M1 and K74 - K10 and K85 - K10"}, {"measurement": "cross-linked residues", "setting": "YWHAZ", "value": "K9 - K74 and K9 - Y82 and K85 - K9"}]}
{"substance": "YWHAG, P61981", "values": [{"measurement": "cross-linked residues", "setting": "YWHAZ", "value": "M1 - K74 and K10 - K74 and K77 - K9"}]}
{"substance": "RPS12, P25398", "values": [{"measurement": "cross-linked residues", "setting": "SERBP1", "value": "K116 - K281 and K116 - K294 and K116 - K299"}]}
